Read-outs that look alike come from different tables or passages of the source.
Columns and labels:
[1] = biological target: T1, human Gas6 (growth arrest-specific 6) (human, UniProt Q14393 49-678, limits assumed); test: KinExA direct inject kinetics (Axl and Gas6 briefly mixed, not at equilibrium)
T1 construct: Bought from R&D Systems
T1 sequence (looked up): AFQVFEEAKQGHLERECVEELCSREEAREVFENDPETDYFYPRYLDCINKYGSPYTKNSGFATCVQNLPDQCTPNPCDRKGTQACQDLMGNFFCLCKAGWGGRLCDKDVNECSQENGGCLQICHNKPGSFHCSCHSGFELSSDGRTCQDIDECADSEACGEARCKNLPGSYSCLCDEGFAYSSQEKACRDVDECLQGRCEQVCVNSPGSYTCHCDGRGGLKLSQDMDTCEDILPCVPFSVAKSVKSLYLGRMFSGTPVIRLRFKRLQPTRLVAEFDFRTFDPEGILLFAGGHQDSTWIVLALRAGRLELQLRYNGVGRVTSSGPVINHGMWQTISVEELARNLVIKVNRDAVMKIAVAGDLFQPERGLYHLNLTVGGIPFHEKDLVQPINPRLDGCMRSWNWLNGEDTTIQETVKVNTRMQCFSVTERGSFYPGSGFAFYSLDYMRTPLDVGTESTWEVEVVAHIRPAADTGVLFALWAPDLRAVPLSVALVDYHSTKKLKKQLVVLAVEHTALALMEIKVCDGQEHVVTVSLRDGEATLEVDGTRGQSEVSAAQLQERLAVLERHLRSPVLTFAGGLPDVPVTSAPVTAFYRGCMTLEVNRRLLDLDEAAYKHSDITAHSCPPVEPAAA

[2] = biological target: T1, human Gas6 (growth arrest-specific 6); test: KinExA equilibrium titration, 5 nM Gas6 (printed 5 nm; filled diamonds)
[3] = biological target: T1, human Gas6 (growth arrest-specific 6); test: KinExA (koff calculated as Kd x kon)
[4] = biological target: T1, human Gas6 (growth arrest-specific 6); test: KinExA direct inject
[5] = biological target: T1, human Gas6 (growth arrest-specific 6); test: KinExA equilibrium titration, 500 pM Gas6 (heavy open diamonds)
mouse Gas6 [6] = biological target: T2, mouse Gas6 (mouse, UniProt Q61592 46-674, limits assumed); test: KinExA; column Kd(pM) mGas6
T2 construct: Used both for the KinExA value against mouse Gas6 and for the endogenous Gas6 in the serum of the nude mice; also called Gas6 (in serum of mice)
T2 sequence (looked up): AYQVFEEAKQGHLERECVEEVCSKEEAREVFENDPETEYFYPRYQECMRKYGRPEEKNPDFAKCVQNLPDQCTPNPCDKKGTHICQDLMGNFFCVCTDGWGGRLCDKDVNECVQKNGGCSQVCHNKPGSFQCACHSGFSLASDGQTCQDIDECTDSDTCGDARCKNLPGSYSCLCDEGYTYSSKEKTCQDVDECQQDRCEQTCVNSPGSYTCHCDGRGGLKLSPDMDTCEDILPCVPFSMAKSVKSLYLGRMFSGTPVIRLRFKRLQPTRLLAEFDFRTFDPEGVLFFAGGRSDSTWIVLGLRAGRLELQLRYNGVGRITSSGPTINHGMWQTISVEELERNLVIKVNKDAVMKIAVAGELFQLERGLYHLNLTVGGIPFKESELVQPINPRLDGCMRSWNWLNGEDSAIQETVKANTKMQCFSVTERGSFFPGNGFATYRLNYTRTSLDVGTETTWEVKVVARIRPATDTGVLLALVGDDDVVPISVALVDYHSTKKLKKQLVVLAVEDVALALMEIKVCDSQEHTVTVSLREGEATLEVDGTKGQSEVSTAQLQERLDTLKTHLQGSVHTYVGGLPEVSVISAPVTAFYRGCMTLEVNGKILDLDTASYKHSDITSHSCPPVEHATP

[7] = biological target: T1, human Gas6 (growth arrest-specific 6); test: KinExA equilibrium titration, 50 pM Gas6 (light open diamonds)
[8] = biological target: T1, human Gas6 (growth arrest-specific 6); test: KinExA (koff calculated as Kd x kon); remark: listed apart in the source
[9] = biological target: T1, human Gas6 (growth arrest-specific 6); test: KinExA direct inject; remark: listed apart in the source
[10] = biological target: T1, human Gas6 (growth arrest-specific 6); test: assay not named in Example 1
mouse Gas6 [11] = biological target: T2, mouse Gas6; test: KinExA

IC50 (read off the curve) [1]: ~3000 pM | IC50 (read off the curve) [2]: ~300 pM | koff [3]: 0.000242 s⁻¹ | kon [4]: 2.6e+07 M⁻¹ s⁻¹ | IC50 (read off the curve) [5]: ~40 pM | Kd (mouse Gas6 [6]): 1.5 pM | IC50 (read off the curve) [7]: ~10 pM | koff [8]: 0.00024 s⁻¹ | kon [9]: 2.6e+07 M⁻¹ s⁻¹ | Kd [10]: 9.2 pM | Kd (mouse Gas6 [11]): ~1 pM
B1: wild-type Axl Fc (Fc fusion)
chain: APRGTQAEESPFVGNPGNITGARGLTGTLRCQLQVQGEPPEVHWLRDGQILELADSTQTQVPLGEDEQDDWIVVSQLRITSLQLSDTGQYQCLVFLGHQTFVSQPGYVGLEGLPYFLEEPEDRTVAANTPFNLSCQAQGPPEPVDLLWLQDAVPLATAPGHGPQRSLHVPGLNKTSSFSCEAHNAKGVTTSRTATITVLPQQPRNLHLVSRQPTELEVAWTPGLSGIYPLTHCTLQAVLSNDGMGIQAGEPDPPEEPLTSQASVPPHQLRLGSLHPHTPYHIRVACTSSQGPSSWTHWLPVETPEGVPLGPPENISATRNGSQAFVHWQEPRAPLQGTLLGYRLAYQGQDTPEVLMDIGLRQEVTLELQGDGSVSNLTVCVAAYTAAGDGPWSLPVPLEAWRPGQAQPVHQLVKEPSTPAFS
notes: Disulfide-linked dimer from HEK cells; also called (a) Wild-type; Full-length wild-type Fc fusion; not shown: Fc domain of a human IgG1

From patent publication US20160266136A1 (Stanford University, published 2016)
